The other results are listed elsewhere or left out. Values were computed here from the reads of four pooled replicates and scatter widely.
Each sequence was assayed against T1, Pho4 (S. cerevisiae) (UniProt P07270) (assay: relative binding free energy (BET-seq); higher = weaker binding). Details: reference: library average.
T1 sequence: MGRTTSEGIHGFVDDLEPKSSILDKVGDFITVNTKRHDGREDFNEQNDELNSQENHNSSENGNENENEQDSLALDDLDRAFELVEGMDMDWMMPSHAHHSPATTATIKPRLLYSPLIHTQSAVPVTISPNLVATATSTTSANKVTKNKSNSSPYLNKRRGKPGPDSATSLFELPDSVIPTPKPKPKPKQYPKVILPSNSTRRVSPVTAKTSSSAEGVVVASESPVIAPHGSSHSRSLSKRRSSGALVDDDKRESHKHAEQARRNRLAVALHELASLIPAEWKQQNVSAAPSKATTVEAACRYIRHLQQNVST

| Sequence | relative binding free energy [kcal/mol] |
| --- | --- |
| GAGGACACGTGGGCAG | -0.02 |
| CAGCGCACGTGGGGTG | -0.32 |
| CAGGACACGTGTGTCG | 0.24 |
| ATTTTCACGTGATTGA | 0.45 |
| ATGAACACGTGAGTTA | 0.2 |
| AATTTCACGTGACTTT | 0.33 |
| AGTCTCACGTGATTGT | 0.14 |
| GAGTGCACGTGCGAAG | 0.1 |
| AAGTGCACGTGGAGAT | 0 |
| TGGTACACGTGGATGT | 0.17 |
| TTCTACACGTGGGAGG | 0.05 |
| AGTACCACGTGTTAGG | -0.02 |
| AGTGTCACGTGTATCT | 0 |
| GTTACCACGTGTATGT | -0.05 |
| AATAGCACGTGGGTAT | -0.26 |
| TCCGGCACGTGGCGGG | -0.06 |
| CTGGCCACGTGTCGGG | 0.01 |
| TTAATCACGTGAATGT | 0.4 |
| TGTTGCACGTGCGTGA | -0.11 |
| ATAGTCACGTGTGAGG | 0.19 |
| GGTTTCACGTGTTCGA | 0.23 |

| Sequence | relative binding free energy [kcal/mol] |
| --- | --- |
| TTGACCACGTGTGGCG | -0.04 |
| AGGTTCACGTGGCTGA | 0.14 |
| GGTATCACGTGAGTGA | 0.2 |
| TGGTTCACGTGAGCAA | 0.37 |
| TGCGGCACGTGTTTGA | -0.03 |
| AGGGTCACGTGAGCGA | 0.27 |
| AGTTTCACGTGTATAC | 0.23 |
| ATGAGCACGTGGTTTA | -0.06 |
| TGGTCCACGTGTGGGG | 0.04 |
| ACGTGCACGTGAGTTA | 0.04 |
| TTATGCACGTGTTGGT | 0.02 |
| AATTGCACGTGTTAGT | 0.04 |
| ATTAGCACGTGGTGCT | -0.12 |
| AGGATCACGTGAGGTT | 0.25 |
| TCGGTCACGTGTCGAT | 0.14 |
| TAAGACACGTGTGGGA | 0.03 |
| GTTGGCACGTGATAGT | 0.06 |
| GAGGACACGTGGGGTG | -0.09 |
| TTGCGCACGTGGAGGA | -0.03 |
| AGGGGCACGTGCGTCA | -0.19 |
| CTTTGCACGTGTAGGG | 0.05 |

| Sequence | relative binding free energy [kcal/mol] |
| --- | --- |
| AGTGACACGTGGATCG | 0.15 |
| TACTTCACGTGGAGTG | 0.29 |
| TTAAACACGTGGATGC | 0.1 |
| TGTTTCACGTGTTCCG | 0.21 |
| TTGTCCACGTGATTTA | 0.19 |
| GATCGCACGTGGTGTG | -0.14 |
| TATTACACGTGGATGA | 0.17 |
| TTGCGCACGTGAGCGT | -0.03 |
| GGCAGCACGTGGAGTG | -0.17 |
| CTAGTCACGTGTTGAG | 0.03 |
| CTGGGCACGTGTTTCT | -0.07 |
| GCGGCCACGTGAAGGG | 0.27 |
| TGGGGCACGTGCGACG | -0.12 |
| TTTCACACGTGTGGGC | 0.12 |
| GGGTGCACGTGACTTG | 0.2 |
| ATGGACACGTGCTTTT | 0.03 |
| GAGTTCACGTGGAGTA | 0.35 |
| GGAATCACGTGGGGGA | 0.11 |
| CGTATCACGTGATTTT | 0.17 |
| TGGTTCACGTGCAGCG | 0.15 |
| TTGAGCACGTGAAAGA | 0.51 |

Source: the BET-seq Pho4 binding data (Le et al. 2018)
